# Measured values published in ChEMBL document CHEMBL4888484, “Replenishing the malaria drug discovery pipeline: Screening and hit evaluation of the MMV Hit Generation Library 1 (HGL1) against asexual blood stage Plasmodium falciparum ,using a nano luciferase reporter read-out” (2022).
# The campaign covered roughly 150,000 compounds. About 540 (0.36%) showed an effect of 50% or more. This is one part of the list.
# Test system: Plasmodium falciparum
# Test: Primary screen in NF54 nanoGlo assay, in single point, at 2uM, 72h; a lower Z score goes with more inhibition
# Type: functional, Erythrocyte
# Settings: timepoint 72 hour
SMILES,% Inhibition [%],Z score
COc1cccc(C(=O)N(Cc2ccc(C)cc2)c2cccc(CC(=O)N(C)Cc3ccccc3)c2)c1,-13,1.66
CC(C)(C)n1nnc(CNc2ccc(CCO)nc2)n1,6,-1.16
COC[C@H]1[C@H](NC(=O)c2cc(=O)[nH]c3ccccc23)[C@H]2CCO[C@H]21,-8,1.02
CCOc1ccc(-c2nc(CON=C(N)CN(C)C)co2)cc1,-3,0.59
CCOC[C@H]1CCN(C(=O)C2CCN(c3ccc(C)cn3)CC2)C1,-4,0.53
COc1ccccc1N1CCN(C(=O)Cn2ncc3c([nH]c4ccccc43)c2=O)CC1,10,-1.58
Cc1ccc(CN2C(=O)[C@@H]3CC[C@H]2C3)c2ccccc12,3,-0.44
N#CC1(NC(=O)c2ncoc2-c2cccs2)CCCC1,-2,0.31
Cc1cccc([C@H]2C(=O)NCCN2Cc2cc(C(=O)O)cs2)c1,0,-0.01
COCCn1cc(NC(=O)N(C2CC2)[C@@H](C)C2CC2)cn1,1,-0.1
CCCNC(=O)N(C)CCc1c(C)nn(CC)c1C,-4,0.46
COCC(=O)Nc1ccc(OC)cc1Br,-3,0.4
O=S(=O)(CCCOc1ccccc1)N1CCc2ncncc2C1,-5,0.89
Cc1cnc(CNC(=O)Cn2c(C)nn(-c3ccc(Cl)cc3)c2=O)cn1,-18,3.41
O=C1C(N2CCCCC2c2nccs2)CCN1CC(F)(F)F (stereo not drawn),-1,0.21
O=C(Cn1nc(C(F)(F)F)c2c1CCOC2)NCc1nccs1,-7,1.35
CC1CCCCC1NC(=O)CC(C)(C)C (stereo not drawn),-5,0.64
CCOC(=O)CCC(=O)N1CCN(C[C@H](OCc2ccc(C(=O)OC)cc2)c2cccc(OC)c2)CC1,-8,1.08
COC(=O)[C@@H](C)NC(=O)[C@H]1CN(C(=O)Nc2ccccc2)CCN1C(=O)NC(C)C,-7,1.06
NC(=O)c1ccc(COc2ccc(C(=O)c3ccc(F)cc3)cc2)cc1,-33,3.92
CC(C)(C)OC(=O)NC1CCCC1C(=O)NCC(F)(F)F (stereo not drawn),-8,1.18
O=C1CC(CC(=O)N2CCCCC2CO)(c2ccccc2)C(=O)N1CCc1ccccn1 (stereo not drawn),4,-0.65
CC[C@@H](C(=O)Nc1cccc(-c2cn[nH]c2)c1)N(C)C,-1,0.15
CC(C)c1cc(C(=O)N(C)c2ccc(Br)cn2)no1,-10,1.29
Cc1nc(N(C)C)nc(C)c1NC(=O)C(C)(C)C,-5,0.82
CN1C(=O)CCCC[C@H]1C(=O)NCc1ccncc1,3,-0.31
Cc1cccc(CNC(=O)CCn2ccnn2)n1,-6,0.68

SMILES,% Inhibition [%],Z score
C=CCN1C[C@@H](c2nc(-c3ccc(CC)cc3)c[nH]2)CC1=O,-9,1.56
CCC(C)c1ccccc1N1CC(C(=O)Nc2ccc(N3CCCC3=O)c(C)c2)CC1=O (stereo not drawn),0,0.02
O=S(=O)(NCCCC[C@H]1CCCO1)N1CCCC1,-14,2.51
CC(=O)NC[C@@H]1CN(c2nnc(C(F)(F)F)s2)C[C@H]1c1cncn1C,-4,0.59
c1nc2nc[nH]c(NC3CCCCC3)c-2n1,35,-4.76
CCS(=O)(=O)NCCCNC(=O)c1cc(C)c(C)cc1Cl,-7,1.27
Cc1n[nH]c(C)c1NC(=O)C1=NO[C@@H](CNC(=O)OC(C)(C)C)C1,33,-1.29
Cn1cnc2cc(NC(=O)C3CCN(c4noc5ccc(Cl)cc45)CC3)ccc21,-6,0.79
Cn1nc(-c2ccsc2)nc1C1CN(C(=O)NC2CCCCC2)C1,-1,0.23
CCCCN(CC)C(=O)[C@@H](c1cnn(C)c1)N1CCOCC1,-19,2.44
CC(C)(C)c1nnc(N2CCN(Cc3ccc4c(c3)OCO4)CC2)o1,5,-0.44
Cn1nc(C2CCCCC2)cc1NC(=O)c1cccc(N)c1,17,-1.93
Oc1ccccc1CNc1cccc2c[nH]nc12,-4,0.68
CCOC(=O)c1cc(-c2ccc(N3CCN(C(=O)c4ccc(OC)c(F)c4)CC3)cc2)n(-c2ccc(OC)cc2)n1,-9,1.05
COc1ccc(OC)c(NC(=O)Cn2cnc3nc(N4CCOCC4)ncc3c2=O)c1,37,-0.92
CCCc1cc(C(=O)N2C[C@@H]3CC[C@H]2CN(Cc2c(C)noc2C)C3)n(C)n1,-4,0.51
Cc1cccc(-n2ncc3c(O)c(C(=O)NCc4ccc(F)cc4F)c(=O)[nH]c32)c1,-17,2.22
COc1cc(CC(=O)N2C3CCC2Cn2c(n[nH]c2=O)C3)cc(OC)c1 (stereo not drawn),-2,0.28
CCCn1nccc1NC(=O)NCc1cnnn1CC,-1,0.15
CCN(CC)C(=O)c1cnc2nc(C)ccc2c1Nc1cc(C)ccc1C,-7,1.06
Cc1cc(C)c(-c2ccc(C(=O)N(C)CCn3ccnc3C)cc2)cc1C,-5,0.69
Cc1csc(CN[C@@H](C)c2nc(C3CCCCC3)no2)n1,2,-0.28
O=C1CN(C(=O)c2cccc(NC(=O)CC3(N4Cc5ccccc5C4=O)CCCCC3)c2)CCN1,-2,0.3
COc1cccc(C(C)N2CCCC(CN3CCOCC3)C2)c1 (stereo not drawn),-6,0.87
O=S(=O)(c1ccc(-c2noc(-c3ccc(F)c(F)c3)n2)cc1)N1CCOCC1,5,-0.84
CCOc1ccc(NC(=O)c2cnn3c2NC(C(=O)O)=C[C@H]3c2cccc(Cl)c2)cc1,-21,1.82
CN1CCN(C2(CNC(=O)Nc3ccccc3C(F)(F)F)CCCC2)CC1,-2,0.33
